Data from PubChem BioAssay (NCATS).
Several values for one entry are separate records, joined by “and”; a condition that tells them apart may be missing. Equal entries are not always repeated. The inconclusive results got no clear call from the source; some entries with a clear call stand among them for comparison. Potencies beside an inconclusive call are fits to weak or partial responses and may not hold up. Activity calls are given as the source filed them. The call rests on the fitted dose curve; in most records, active means well fitted activation curve with a large enough effect; inconclusive means small, poorly fitted or top-dose-only effect; inactive means no such curve, though single readings can be large or run the other way.

Biological target: Cellular tumor antigen p53 (Homo sapiens) (UniProt P04637)
Chain of UniProt P04637 (P04637 whole entry, looked up): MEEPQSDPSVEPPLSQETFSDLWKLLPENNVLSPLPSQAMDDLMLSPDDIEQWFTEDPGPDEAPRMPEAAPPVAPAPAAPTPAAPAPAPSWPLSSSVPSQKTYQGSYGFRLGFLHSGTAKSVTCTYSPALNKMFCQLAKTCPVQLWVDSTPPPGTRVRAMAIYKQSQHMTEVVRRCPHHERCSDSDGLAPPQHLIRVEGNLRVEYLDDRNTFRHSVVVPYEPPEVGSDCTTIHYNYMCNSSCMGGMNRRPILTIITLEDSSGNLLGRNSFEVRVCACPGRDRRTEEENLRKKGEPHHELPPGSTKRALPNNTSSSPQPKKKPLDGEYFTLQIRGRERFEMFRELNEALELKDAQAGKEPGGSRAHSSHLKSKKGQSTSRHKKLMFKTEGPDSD
Assay: Primary qHTS for small molecule compounds that upregulate eGFP-tagged delta133p53alpha (in N-terminal) cells. (AID 2060322); further: nearly all actives have a fitted effect of over 75% in size;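 on activation: series mostly up to about 56 µM; 0% = DMSO vehicle and 100% = reference activator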
Conditions: NCI-H358 eGFP-delta133p53alpha fluorescence, 24 h; activation: stronger effect = higher value
Summary of the method: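 NCI-H358 cells pre-induced 24 h with 10 ng/ml doxycycline to express N-terminal eGFP-delta133p53alpha, then dosed 24 h at 37C without doxycycline; fixed, Hoechst-stained, GFP intensity by laser scanning cytometry, normalized to DMSO (0%) and 57.5 uM 5-azacytidine (100%).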
Potency means the concentration at half of the fitted maximal effect; tags describe the fitted curve by direction and shape.

| SMILES | Potency | activation |
| --- | --- | --- |
| CC(=O)OC1[C@H]2[C@@H](C[C@@H](C)[C@@H]3C=CC(=O)[C@@]13C)OC(=O)[C@@H]2C (stereo partly specified) | active: 21.3 µM |  |
| Nc1cc(C(F)(F)F)c(-c2cc(N3CCOCC3)nc(N3CCOCC3)n2)cn1 | inconclusive: 1.09 µM [activator, full curve, poor fit] and active: 1.69 µM |  |
| COC(=O)C1=CO[C@@H](O)[C@@H]2C(CO)=CC[C@@H]12 |  | inactive: 4.38% |
| CC(=O)OC/C=C(C)/C=C/C=C(C)/C=C/C1=C(C)CCCC1(C)C | inconclusive: 43.7 µM [activator, single point] |  |
| CNCCCCOc1ccccc1Cc1ccccc1 | inconclusive: 5.5 µM [activator, partial curve, poor fit] |  |
| C=C1C(=O)O[C@@H]2/C=C(\CO)CC/C=C(/C=O)C[C@H](O)[C@@H]12 | active: 26.9 µM |  |
| C=C1C(=O)O[C@H]2C1CCC(C)=C1C(=O)C=C(C)[C@@]12O (stereo partly specified) | inconclusive: 37.9 µM [activator, single point] |  |
| CCC1OC(=O)C(C)CC(C)C(=O)/C(C)=C/C(C)C(=O)/C=C/C1(C)O (stereo unspecified) |  | inactive: 3.05% |
| COc1cc(=C2C=c3ccccc3=N2)[nH]c1=Cc1[nH]c(C)cc1C | inconclusive: 1.37 µM [activator, full curve, poor fit] |  |
| Cc1cc(Nc2cc(N3CCN(C)CC3)nc(C=Cc3ccccc3)n2)n[nH]1 |  | inactive: 51.8% |
| Oc1ccc(Cl)c2cccnc12 | inconclusive: 38.9 µM [activator, single point] |  |
